From paper PMC7819943, “Rice protein-binding microarrays: a tool to detect cis-acting elements near promoter regions in rice”
Some of the results follow.

Biological target: T1, OsWOX13 (Oryza sativa, UniProt Q5QMM3 1-267)
T1 sequence: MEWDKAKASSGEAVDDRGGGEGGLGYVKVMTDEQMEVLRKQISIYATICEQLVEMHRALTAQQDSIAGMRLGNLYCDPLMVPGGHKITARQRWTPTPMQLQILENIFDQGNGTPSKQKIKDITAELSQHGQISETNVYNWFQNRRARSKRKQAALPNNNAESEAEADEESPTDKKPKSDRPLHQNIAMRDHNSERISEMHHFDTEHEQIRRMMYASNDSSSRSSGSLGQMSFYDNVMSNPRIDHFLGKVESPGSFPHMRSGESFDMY
Assay: protein-binding microarray (RPBM); PBS, 2% BSA, 51.3 ng/ul salmon testes DNA, 50 uM zinc acetate, 200 nM TF, 25 C, 1 h; high values mean tight binding
Details: protein: recombinant; tags: N-terminal polyhistidine and DsRed monomer fusion (pET32a); label: CyDye5-dUTP incorporated in the synthesized complementary strand; 3' TTTTT single-stranded linker to array surface; dsDNA, one strand shown
Method in brief: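 Transcription factors were made in E. coli BL21-CodonPlus as N-terminal fusions to a polyhistidine tag and DsRed, then purified on Ni–NTA. After primer extension with Cy5-dUTP and blocking with 2% BSA, a custom Agilent array was exposed for 1 h at 25 °C to 200 nM protein in PBS, 2% BSA, salmon testes DNA and 50 µM zinc acetate. Washed arrays were scanned on an Axon 4000B, and the binding signal is per-feature fluorescence intensity in arbitrary units.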

| Sequence | binding signal |
| --- | --- |
| TATTTTCAATTATAGGTCTAATTGTTTTATTTAGGTGATTCGGAGTCACCTAGTGCAG | 20500 fluorescence intensity (a.u.) |
| AATAATTGAGGGCAGGGAGGTGATGAAGCAACCTCCACTCCGGAGTCACCTAGTGCAG | 19300 fluorescence intensity (a.u.) |
| AGCGATTCAATTGGTTAATTGTGTTGAAGTCTATTGTTGCCGGAGTCACCTAGTGCAG | 4750 fluorescence intensity (a.u.) |
| ATCTAATCATAGGTGAGCTAACCGAGGAAGAACAATGCAACGGAGTCACCTAGTGCAG | 5440 fluorescence intensity (a.u.) |
| AAAGGCAATTACGAGGCACTAACAACTTTCCTAGCACGGCCGGAGTCACCTAGTGCAG | 5250 fluorescence intensity (a.u.) |
| GTAGATATCGAGCTAATTAGCAATAAGGTCAAACAGCAACCGGAGTCACCTAGTGCAG | 13300 fluorescence intensity (a.u.) |
| ATGATTGACAAGATGAATCAGCACGCTGTTGGAAAAGGGACGGAGTCACCTAGTGCAG | 55400 fluorescence intensity (a.u.) |
| TAGTTTATACTCAATTAATCATGTACTAATAGCTCACCTCCGGAGTCACCTAGTGCAG | 6820 fluorescence intensity (a.u.) |
| TCATCAATCCATATAAACTGGACTAGGGCTATTATCTGCTCGGAGTCACCTAGTGCAG | 10700 fluorescence intensity (a.u.) |
| AGTAACTGTAACTGAAGAAGCCGGCGCCACCATTCCCGCCCGGAGTCACCTAGTGCAG | 6680 fluorescence intensity (a.u.) |
| GTTTCAAATTAATTATCATGTAACATTAGACTATATGAAACGGAGTCACCTAGTGCAG | 16100 fluorescence intensity (a.u.) |
| CAATGGGATGACTGCGGTGAATTGCAAGACCAATGGGATGCGGAGTCACCTAGTGCAG | 3390 fluorescence intensity (a.u.) |
| ACAATTGAAATTTGCCAACAAAATTTTCCAAATTCGAAGACGGAGTCACCTAGTGCAG | 7220 fluorescence intensity (a.u.) |
| CTGTAATAAATTATTAACCTAGGCTTTGTAGCTGTCTAAACGGAGTCACCTAGTGCAG | 5140 fluorescence intensity (a.u.) |
| GCTGATTACATCCGTCTCACTTTGACCATGGATTACTTTTCGGAGTCACCTAGTGCAG | 34900 fluorescence intensity (a.u.) |
| TGCTAGAATGATTTACGTTATGAAACTGAGGGAGTACATCCGGAGTCACCTAGTGCAG | 5380 fluorescence intensity (a.u.) |
| TACATCAGCTTCACTAGATTAATTGGCACATCATCTGACTCGGAGTCACCTAGTGCAG | 9810 fluorescence intensity (a.u.) |
| TGAAAATTTCTTCAGTGACTGAGTATTGCTCTTCACCCATCGGAGTCACCTAGTGCAG | 6860 fluorescence intensity (a.u.) |
| GGGGAGGCGGGGTGGCGGGAGGGAAGGCGGCGGCGGCGCCCGGAGTCACCTAGTGCAG | 4430 fluorescence intensity (a.u.) |
| GATAATTTGTTTGTTCTCCGAAATTACCAAACTGTCCTTTCGGAGTCACCTAGTGCAG | 25400 fluorescence intensity (a.u.) |
| CAAGATTATTAGCACGGATTATATCTATTTCATTAACAAACGGAGTCACCTAGTGCAG | 3310 fluorescence intensity (a.u.) |

| Sequence | binding signal |
| --- | --- |
| ATAATTAATTTTGAAGGGAAATGGAAGGCATCCTTCTTGGCGGAGTCACCTAGTGCAG | 47700 fluorescence intensity (a.u.) |
| ACTAACAATTATTATATCGATTATTTTAAATATCATGTTACGGAGTCACCTAGTGCAG | 7610 fluorescence intensity (a.u.) |
| GTCAAATTAGCCACGTATGCGCCACGACAGCTAAAATCACCGGAGTCACCTAGTGCAG | 4230 fluorescence intensity (a.u.) |
| ACGGCTTAATTAGGCTCAAAAGATTCGTCTCACGGTTTTCCGGAGTCACCTAGTGCAG | 4220 fluorescence intensity (a.u.) |
| ACACCTAACCATTCAATCCAAAATCAAACAACCGAAGACTCGGAGTCACCTAGTGCAG | 3190 fluorescence intensity (a.u.) |
| CTTAATTGTAAATCGTTACAGTTTGTTGTCATTTCATTTCCGGAGTCACCTAGTGCAG | 25600 fluorescence intensity (a.u.) |
| ACTTTGATCCATCTATCAAATCAGCATGCGTGCCTAGCAACGGAGTCACCTAGTGCAG | 3170 fluorescence intensity (a.u.) |
| TCATCGGGATTGAATTCTCCTTAATTAAATGGAAGAGTGACGGAGTCACCTAGTGCAG | 14800 fluorescence intensity (a.u.) |
| TTCAGTTGAAATCATTTAGTAATTATAAATGTTGTTTGAACGGAGTCACCTAGTGCAG | 8860 fluorescence intensity (a.u.) |
| TCCCTGTTGTATTTCTTTAATTTGTTTGTGATATATACAACGGAGTCACCTAGTGCAG | 4030 fluorescence intensity (a.u.) |
| TACCACCACTGATTGAGTTGGGTCAGGTCGAACTTCTCTCCGGAGTCACCTAGTGCAG | 12800 fluorescence intensity (a.u.) |
| CCAAATTTGTTGCGAGATTTGAGGTTTCCTTGCGTGCTTGCGGAGTCACCTAGTGCAG | 15000 fluorescence intensity (a.u.) |
| AGGCAGCAATAATTAATGGCAAAACTTTACCATGTATCTACGGAGTCACCTAGTGCAG | 4970 fluorescence intensity (a.u.) |
| TGCCATTCACTAATAATTGCCAACATAACAAACTGACAGCCGGAGTCACCTAGTGCAG | 12700 fluorescence intensity (a.u.) |
| AGCAATGCAACGATTATTAATTTAATTTGCACATGTATTGCGGAGTCACCTAGTGCAG | 5900 fluorescence intensity (a.u.) |
| AGTCTCTAAATTACATATGTAAATTTAGTGTATTTATAATCGGAGTCACCTAGTGCAG | 12200 fluorescence intensity (a.u.) |
| AGTTACTAATTGATTCAGATGCATGGCAGTATAATTGTCTCGGAGTCACCTAGTGCAG | 44900 fluorescence intensity (a.u.) |
| ATGAGCTTATGCCTGATTGAGAGGTTTCATCGGATTGAAACGGAGTCACCTAGTGCAG | 5950 fluorescence intensity (a.u.) |
| CATCAATCATCATTACATATTCTGTCAGTAATAATCCGAGCGGAGTCACCTAGTGCAG | 38800 fluorescence intensity (a.u.) |
| TTAAACATTCTATAATTTAGTCTGTTATTAAGCTACGTTTCGGAGTCACCTAGTGCAG | 10500 fluorescence intensity (a.u.) |
| GGTGATTTGATTCAAATTCAATCCGATCCTTTGTTGGTTTCGGAGTCACCTAGTGCAG | 53400 fluorescence intensity (a.u.) |
